Source: the RNAGym collection of RNA variant scans (doi:10.7554/elife.90254)
The source gives no read counts; variants with many changes may rest on few reads.

B1: LINE1-mini (parent)
chain: GGCAGAGCUCAACACAGCGUGGCAAAGUGGCUGUGGCUAGACUGCC

Variants of: B1
Experiment: self-cleavage, relative activity (ratio to wild type); higher = more cleavage; in vitro, sequencing; the parent is a self-cleaving ribozyme

Row | Variant | self-cleavage
1 | G2U C3U C10A | 0.03
2 | G2U C18A G27U A39U C46U | 0.05
3 | G2U A16U G30U | 0.01
4 | G2U C13U G35U U43A | 0.02
5 | G2U C3G U32A G44U | 0.07
6 | G2U C8G C13U | 0.04
7 | G2U A26C G33U | 0
8 | G2U A14G A41U C42U C46A | 0
9 | G2U A12U A24C G35A | 0.01
10 | G2U A11U U20G U32C G44U | 0.03
11 | G2U C3A G17U G35A C45G | 0.05
12 | G2U C3U G44A | 0.19
13 | G2U C3U G44U | 0.08
14 | G2U G5C C10U A16C C45A | 0.01
15 | G2U C13G G30C | 0.04
16 | G2U C10A G30A | 0.01
17 | G2U C10A G30C | 0.02
18 | G2U A14C A24G U28G G29A | 0.03
19 | G2U A12G A39G C46G | 0.01
20 | G2U A12C G19A G22A C31G G36A A39U | 0.01
21 | G2U A26G G30A U32G | 0.02

Row | Variant | self-cleavage
22 | G2U A26G G40C | 0.03
23 | G2U G5C C13U | 0.01
24 | G2U C13U A25C G30U G35U A41U C45A | 0.06
25 | G2U C15G U34G G40U C45U | 0
26 | G2U G5A A6G G7C C18U G19U G27A U32C | 0.03
27 | G2U A12G G17A G22U U28A | 0
28 | G2U C13G G33U | 0.06
29 | G2U C18G G36A G44C | 0.01
30 | G2U A25U G30A | 0.04
31 | G2U C3A G36C | 0.11
32 | G2U G5C U20C | 0.05
33 | G2U C3U C13U | 0.09
34 | G2U C10U G17A G27A U28C G40A | 0.01
35 | G2U C13A A39C C45G | 0.01
36 | G2U C23U C31A G36C | 0.04
37 | G2U C23U C31U G35C | 0.02
38 | G2U A12G G17C U20G | 0.01
39 | G2U C23G G27U C46U | 0.1
40 | G2U C13G G19U | 0.03
41 | G2U C10G G29A | 0.02
42 | G2U A12C C13A U28G G33U | 0.01

Row | Variant | self-cleavage
43 | G2U A24U G40U | 0.2
44 | G2U C13G G29A U34C C46U | 0.01
45 | G2U C10U A12G C23A G30U | 0.01
46 | G2U A12C A39G | 0.02
47 | G2U C3G G40C | 0.03
48 | G2U C8A A25C | 0.01
49 | G2U C3U U20A | 0.18
50 | G2U C13A A26C G36C | 0.07
51 | G2U G5U C10A G22U U38A | 0.03
52 | G2U C3A U9G G27A U38C | 0.07
53 | G2U A14U A26G C37A | 0.04
54 | G2U C10U G17C G35C G44A | 0.01
55 | G2U G5C G7A A12C C15A | 0.01
56 | G2U G5C U32G A39C | 0.02
57 | G2U A14C G22U | 0.04
58 | G2U G5A C18A C31A A41U | 0.02
59 | G2U A11U C13A G19C A24C | 0
60 | G2U C31A U43A | 0.01
61 | G2U G5A A24U C31U | 0.02
62 | G2U C3G G5C C13U | 0.11
63 | G2U A16U G21U G29A G33C G40U | 0

Row | Variant | self-cleavage
64 | G2U G5C C8G U9C G30C | 0.02
65 | G2U C18U A26G | 0.01
66 | G2U C3A G7C U34A A41G | 0.03
67 | G2U C3G A4G A12C A16G G40A | 0.01
68 | G2U C3A C23A G27U | 0.48
69 | G2U C3U A12C C31A | 0.03
70 | G2U C3U A14U G33C A41C | 0.03
71 | G2U C3U A12G G17U U20A U32G C46G | 0.31
72 | G2U A14C G40U | 0.02
73 | G2U G5A U9G A25C G44A | 0.05
74 | G2U A24U U34A G35U | 0.01
75 | G2U A25C A39G | 0
76 | G2U A12U U28C | 0
77 | G2U A12C A14C C37U | 0.02
78 | G2U A16G G19A A26U U32A C37U C45A | 0
79 | G2U A12G A25U | 0.02
80 | G2U C10A C15G A16C A26C G36U | 0.01
81 | G2U A12C A25U A39C C46U | 0
82 | G2U C18U A24G | 0
83 | G2U A25C U34A | 0.01
84 | G2U C3G A11U U43C | 0.04
